We go through 37 compounds from the supplement of paper PMC9446081.

About 220 (0.56%) of roughly 39,000 compounds showed activity. The list shows a part of the results.
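Note: static incubation at 37 °C against the wild-type strain, values averaged over two biological replicates.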

The assay has as its system Escherichia coli K-12 BW25113. In words: relative growth (OD600 normalised to plate interquartile mean) (fraction); higher = less growth inhibition, active = 0.2 or less. The settings on record: 50 µM; LB; incubation time: overnight (16-24 h).
`COc1ccc([Si](C)(C)[C@H]2[C@H](CCn3cc([C@H](O)c4ccccc4)nn3)O[C@@]3(C(=O)N(Cc4cccc(N5CCOC5=O)c4)c4ccccc43)[C@@H]2C)cc1`: the relative growth is inactive: 1.02.
As for `CC(C)NC(=O)Nc1ccc2c(c1)C(=O)N([C@H](C)CO)C[C@@H](C)[C@H](CN(C)S(=O)(=O)c1ccc(Cl)cc1)O2`, the relative growth is inactive: 1.03.
As for `C[C@@H]1CN([C@@H](C)CO)C(=O)Cc2cc(NS(=O)(=O)c3cccs3)ccc2O[C@@H]1CN(C)Cc1ccc(-c2ccccc2)cc1`, the relative growth is inactive: 1.07.
The figure for `C[C@@H]1CN([C@@H](C)CO)C(=O)Cc2cc(NC(=O)CCCCCC(=O)Nc3ccccc3N)ccc2O[C@@H]1CN(C)C(=O)Nc1cccc2ccccc12` is inactive: 0.94.
On to `C[C@@H]1CN([C@@H](C)CO)C(=O)c2cc(NC(=O)Nc3ccc(C(F)(F)F)cc3)ccc2O[C@@H]1CN(C)Cc1ccc(-c2ccccc2)cc1`, for which the relative growth is inactive: 1.03.
Turning to `COc1cc(O)cc(OC)c1OC`, the relative growth was inactive: 1.1.
The figure for `C[C@@H]1CCCCO[C@@H](CN(C)S(C)(=O)=O)[C@H](C)CN([C@@H](C)CO)C(=O)c2cc(NS(=O)(=O)c3cccs3)ccc2O1` is inactive: 1.01; for `C[C@@H]1CN([C@@H](C)CO)C(=O)c2cc(NS(C)(=O)=O)ccc2O[C@@H]1CN(C)Cc1ccc(C(=O)Nc2ccccc2N)cc1` it is inactive: 1; for `O=C(NC(Cc1cc(=O)[nH]c2ccccc12)C(=O)O)c1ccc(Cl)cc1` (configuration not stated) it is inactive: 0.965.
Turning to `Cn1cc(C[C@@H](N)C(=O)O)c2ccccc21`, the relative growth was inactive: 0.998.
For `CC(C)CC#Cc1cnc2c(c1)C(=O)N([C@@H](C)CO)C[C@H](C)[C@@H](CN(C)S(=O)(=O)c1cccs1)O2`, the relative growth is inactive: 1.01.
As to `Cc1nc2cc(C)c(C)cc2s1`, the relative growth is inactive: 0.994.
As to `CCN(CC)CCCCNc1ncc2cc(-c3c(Cl)cccc3Cl)c(NC(=O)NC(C)(C)C)nc2n1`, the relative growth was inactive: 0.984.
The figure for `C[C@H](CO)N1C[C@H](C)[C@@H](CN(C)S(=O)(=O)c2cccc(C#N)c2)OCc2cnnn2CCCC1=O` is inactive: 0.984; for `O=C([O-])Cc1ccccc1Nc1c(Cl)cccc1Cl.[Na+]` it is inactive: 1.13.
For the compound `O=C(/C=C/c1ccc(O)c(O)c1)O[C@H]([C@H](OC(=O)/C=C/c1ccc(O)c(O)c1)[C@H](OC(=O)/C=C/c1ccc(O)c(O)c1)C(=O)O)[C@@H](OC(=O)/C=C/c1ccc(O)c(O)c1)C(=O)O`, the relative growth was inactive: 0.975.
Consider `COCC(=O)N(C)C[C@@H]1Oc2cc(C#C[C@H](C)O)ccc2S(=O)(=O)N([C@H](C)CO)C[C@H]1C`, for which the relative growth is inactive: 1.02.
For `Cc1noc(C)c1S(=O)(=O)N(C)C[C@H]1Oc2ccc(NC(=O)Cc3cn(C)c4ccccc34)cc2CC(=O)N([C@@H](C)CO)C[C@H]1C`, the relative growth is inactive: 1.01.
As for `COc1ccc(CCNC(=O)[C@@]2(Sc3ccc(C)cc3)CC(=O)N(C(C)C)[C@@H]2c2ccc(CO)cc2)cc1`, the relative growth is inactive: 1.01.
As to `C[C@H](CO)N1C[C@H](C)[C@H](CN(C)C(=O)NC2CCCCC2)OCCCC[C@H](C)Oc2ccc(NC(=O)Cc3ccccc3)cc2C1=O`, the relative growth was inactive: 0.975.
With `C[C@H](CO)N1C[C@H](C)[C@H](CN(C)Cc2ccccc2)Oc2c(NC(=O)CCCCCC(=O)Nc3ccccc3N)cccc2C1=O`, the relative growth was inactive: 1.02.
`C[C@@H]1CCCCO[C@H](CN(C)C(=O)Cc2ccccc2)[C@@H](C)CN([C@@H](C)CO)C(=O)c2cc(NS(=O)(=O)c3cccs3)ccc2O1`: the relative growth is inactive: 0.997.
As for `COc1cc2c(cc1-c1coc3c4c(c(OC)cc3c1=O)OC(C)(C)CC4)OCO2`, the relative growth is inactive: 1.09.
For the compound `C[C@@H]1CCCCO[C@@H](CN(C)Cc2ccccc2)[C@@H](C)CN([C@H](C)CO)C(=O)c2cc(NS(=O)(=O)c3cccs3)ccc2O1`, the relative growth was inactive: 1.01.
The figure for `CCCCCCO[C@H](C)c1c(c/2[nH]c1/C=C/1\N=C(/C=C/3\NC4=C(CC(=O)C4=C3C)C3=N/C(=C2)[C@@H](C)[C@@H]3CCC(=O)O)C(=C1C)CC)C` is inactive: 1.25; for `COc1ccc(S(=O)(=O)Nc2ccc3c(c2)C(=O)N([C@H](C)CO)C[C@H](C)[C@H](CN(C)Cc2ccc(C(=O)Nc4ccccc4N)cc2)OCCCC[C@@H](C)O3)cc1` it is inactive: 1.03.
On to `C[C@@H]1CN([C@H](C)CO)C(=O)Cc2cc(NC(=O)Cn3cnnn3)ccc2O[C@@H]1CN(C)CC1CC1`, for which the relative growth was inactive: 0.972.
For the compound `COc1ccc(-c2cc(=O)c3c(O)cc(O[C@@H]4O[C@@H](CO[C@@H]5O[C@H](C)[C@@H](O)[C@H](O)[C@H]5O)[C@H](O)[C@@H](O)[C@H]4O)cc3o2)cc1O`, the relative growth is inactive: 1.01.
Consider `C[C@H](CO)N1C[C@H](C)[C@@H](CN(C)S(=O)(=O)c2ccc(Cl)cc2)OCCCC[C@H](C)Oc2ccc(NC(=O)Nc3ccc4c(c3)OCO4)cc2C1=O`, for which the relative growth was inactive: 1.03.
On to `C[C@@H]1CCCCO[C@H](CN(C)Cc2ccc3c(c2)OCO3)[C@@H](C)CN([C@H](C)CO)C(=O)c2cc(NS(=O)(=O)c3ccc(F)cc3)ccc2O1`, for which the relative growth is inactive: 0.988.
Turning to `CCOC(=O)[C@@H](C#N)C(=O)C1CC1`, the relative growth is inactive: 1.01.
The figure for `C[C@@H]1CN([C@H](C)CO)C(=O)c2cc(NC(=O)CCCN(C)C)ccc2O[C@H]1CN(C)C(=O)Nc1ccc(F)cc1` is inactive: 1.03; for `C[C@H](CO)N1C[C@H](C)[C@H](CN(C)C(=O)Nc2cccc3ccccc23)OCCCC[C@H](C)Oc2ccc(NS(=O)(=O)c3ccc(F)cc3)cc2C1=O` it is inactive: 0.999; for `Cc1noc(C)c1NC(=O)N[C@H]1C=C[C@@H](CC(=O)NCCCN(C)C)O[C@@H]1CO` it is inactive: 1.02.
On to `C[C@H](CO)N1C[C@H](C)[C@H](CN(C)Cc2ccc(C(=O)O)cc2)OCCCC[C@H](C)Oc2ccc(NC(=O)Nc3ccc(C(F)(F)F)cc3)cc2C1=O`, for which the relative growth was inactive: 0.874.
For the compound `Cc1noc(C)c1S(=O)(=O)N(C)C[C@@H]1OCCCC[C@H](C)Oc2ccc(NC(=O)Nc3ccccc3)cc2C(=O)N([C@H](C)CO)C[C@H]1C`, the relative growth is inactive: 1.
The figure for `CCOC(=O)N(C)C[C@H]1OCc2cnnn2CCCC(=O)N([C@@H](C)CO)C[C@H]1C` is inactive: 1.01.
